Experimental data reported in ChEMBL document CHEMBL1201862, “PubChem BioAssay data set” (2004).
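Grown in 96-well plates, cells were treated for 48 hours with each compound at five concentrations. Insufficient inhibition: endpoint recorded as highest concentration tested. GI50 = concentration required for 50% inhibition of growth.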 Active and inactive are the calls of the source. No stated cut-off is given here; in the data, active = GI50 up to about 1.1 µM and inactive = higher.

What follows are molecules tested on NCI-H322M (assay: NCI tumour cell line growth inhibition, 48 h).

| Compound | GI50 |
| --- | --- |
| CC1(O)CC23CC1CCC2(C)C12CCCC(C)(C(=O)O1)C2CC3O (stereo not drawn) | inactive: > 100 µM |
| COc1cccc2c1OC(c1cccc3ccccc13)C([N+](=O)[O-])=C2 (stereo not drawn) | inactive: 1.96 µM |
| COC(=O)c1cc(C(=O)OC)cc(-c2ccc3c(c2)-c2nc4c(c(-c5ccc(OC)cc5)c2CC3)CCc2ccc(-c3cc(C(=O)OC)cc(C(=O)OC)c3)cc2-4)c1 | inactive: 16.6 µM |
| O=C(O)CN(c1ccc(Cl)cc1)S(=O)(=O)c1ccccc1 | inactive: > 100 µM |
| COc1cc2c(c(OC)c1O)-c1ccc(SC)c(=O)cc1C(NC(C)=O)CC2 (stereo not drawn) | active: 0.0265 µM |
| COC(Cc1ccccc1)NC(C)=O (stereo not drawn) | inactive: > 100 µM |
| [N-]=[N+]=CC(=O)OCC(N)C(=O)O (stereo not drawn) | inactive: 1.26 µM |
| CSc1ccc(NC(=O)Nc2cc(C)ccn2)cc1 | inactive: > 100 µM |
| COc1cc(/C=N/N=C(\N)NO)cc(OC)c1OC | inactive: 17.4 µM |
| O=c1[nH]c(=O)n(C2OC(COP(=O)(O)OP(=O)(O)OC3OC(CO)C(O)C(O)C3O)C(O)C2O)cc1F (stereo not drawn) | active: 0.0366 µM |
| CSc1nc(=O)c(C#N)c(-c2ccccc2)n1C1OC(COC(C)=O)C(OC(C)=O)C(OC(C)=O)C1OC(C)=O (stereo not drawn) | inactive: > 100 µM |
| Cc1ccc(C(=O)/C=C(O)/C(O)=C/C(=O)c2ccc(C)cc2C)c(C)c1 | inactive: 12.8 µM |
| [O-][S+]1c2ccccc2NC(c2ccc3ccccc3c2)CC1c1ccccc1 (stereo not drawn) | inactive: 35.2 µM |
| O=C1CC(Cc2n[nH]c3c2CCCC3)CC(=O)N1 | inactive: > 100 µM |
| Clc1ccc(Cl)c(Nc2ccnc(SCc3ccccc3)n2)c1 | inactive: > 100 µM |
| C/C(=N\NC(N)=S)c1ccc2c(c1)Sc1ccccc1O2 | inactive: 4.82 µM |
| C[n+]1cn(-c2nc3ccccc3nc2[N-]S(=O)(=O)c2ccccc2)c2ccccc21 | inactive: > 100 µM |
| CSC(=O)C[C@@]12O[C@@H]([C@@H](C)C3CCC4[C@@H]5C(O)CC6=CC(=O)C=C[C@]6(C)C5CC[C@@]43C)C[C@](C)(O1)C(C)(C)O2 (stereo partly drawn) | inactive: 17.1 µM |
| COC1=C(C)C(=O)c2c(cc3c(c2O)C(C)(CCC=C(C)C)C(C)O3)C1=O (stereo not drawn) | inactive: 19.2 µM |
| CC1CC(C#N)=C2NCCN2C1=O (stereo not drawn) | inactive: > 100 µM |
| CN(C)/C=N\c1nncc2[nH]cnc12 | inactive: > 100 µM |

| Compound | GI50 |
| --- | --- |
| Cc1ccc(NC(=O)CC/C(CC(=O)C(C)(C)C)=N/Nc2nnc(C)n2N)cc1C | inactive: > 100 µM |
| CC1=CC2CCC1(C)C/C2=C(/C)OC=O (stereo not drawn) | inactive: > 100 µM |
| CCCC(C)NC(=O)c1ccc(N(C)Cc2cnc3nc(N)nc(N)c3n2)cc1 (stereo not drawn) | inactive: 24.3 µM |
| COc1cc2c(cc1OCCCC(=O)Nc1cc(C(=O)Nc3cc(C(=O)Nc4cc(C(=O)NCCCN(C)C)n(C)c4)n(C)c3)n(C)c1)N=C[C@@H]1CCCN1C2=O | inactive: 13.9 µM |
| NC(Cc1ccc(S(=O)(=O)O)cc1)C(=O)NC(Cc1ccc(S(=O)(=O)O)cc1)C(=O)NC(Cc1ccc(S(=O)(=O)O)cc1)C(=O)NC(Cc1ccc(S(=O)(=O)O)cc1)C(=O)O (stereo not drawn) | inactive: > 100 µM |
| COc1cc(OC)c2c(=O)c(OC)c(-c3ccc4c(c3)OCO4)oc2c1OC | inactive: > 100 µM |
| CN(C)CCCN1c2ccc([N+](=O)[O-])cc2CCc2cccc([N+](=O)[O-])c21 | inactive: 14.6 µM |
| N#C/C(=C\c1c[nH]c2ccccc12)C(=O)c1ccc(O)c(O)c1 | inactive: 41.2 µM |
| CN(C)CCNC(=O)c1ccc(NC(=O)c2nc([N+](=O)[O-])cn2C)cc1 | inactive: > 100 µM |
| O=C1CCC2(c3ccccc3)OCC([C@@H](O)c3ccccc3)N12 (stereo partly drawn) | inactive: > 100 µM |
| COc1ccc(C(=O)C(C(=O)CC(=O)Nc2cccc(C(F)(F)F)c2)c2ccc(OC)cc2)cc1 (stereo not drawn) | inactive: > 100 µM |
| COc1ccc(/C=C(\C#N)c2nc(N)nc(N3N=C(C)CC3(C)C)n2)c(O)c1 | inactive: 17.7 µM |
| CCOC(=O)c1nc(-c2ccccc2)oc1OCC | inactive: > 100 µM |
| COC1=CC(=O)NCCN1 | inactive: > 100 µM |
| COc1cc(C(c2c(O)c3ccccc3oc2=O)c2c(O)c3ccccc3oc2=O)cc(Br)c1O | inactive: 19.3 µM |
| CCn1c(-c2ccc(C)cc2)cs/c1=N\C(P(=O)(O)O)P(=O)(O)O | inactive: > 100 µM |
| CC1OC(n2cc(I)c(=O)[nH]c2=O)C=CC1=O (stereo not drawn) | inactive: 18.5 µM |
| Cn1c(Sc2ccc(-c3cccnc3)n2C)ccc1-c1cccnc1 | inactive: 24.6 µM |
| O=S1(=O)C(c2ccccc2)=C(O)c2ccccc21 | inactive: > 100 µM |
| COc1ccc(C(=C2C=CC=C2)c2ccc(OC)cc2)cc1 | inactive: 51.9 µM |
| O=C(O)CCC(=O)N1c2ccccc2CC1c1c[nH]c2ccccc12 (stereo not drawn) | inactive: > 100 µM |

| Compound | GI50 |
| --- | --- |
| COc1ccc(NC(=O)/C(=N\NC(=O)C[n+]2ccccc2)c2c(O)c3ccc(O)cc3oc2=O)c([N+](=O)[O-])c1 | inactive: > 100 µM |
| COc1ccc(-c2cc(-c3ccc(Nc4ccnc5cc(Cl)ccc45)cc3)[nH]c(=O)c2C#N)cc1 | inactive: > 100 µM |
| COc1ccc(C(C)NNC(=O)c2ccncc2)c(OC)c1 (stereo not drawn) | inactive: > 100 µM |
| Clc1ccc(Cc2nc3ccccc3o2)cc1 | inactive: > 100 µM |
| COc1ccc2c(=O)c([Se]c3coc4cc(OC)ccc4c3=O)coc2c1 | inactive: 35.6 µM |
| CCOC(=O)CC1(Cc2ccc(OCc3ccccc3)cc2)C(=O)OC(c2ccccc2)N1C(=O)c1ccccc1 (stereo not drawn) | inactive: > 100 µM |
| CC(C)NCC(O)c1cc(OCc2ccccc2)c(OCc2ccccc2)cc1NC(=O)CCC(=O)O (stereo not drawn) | inactive: 15.2 µM |
| CCCCCCCCCC/C=C/C=O | inactive: > 100 µM |
| CO[C@H]1Nc2c(ccc(C)c2O)C(=O)N2C=C(/C=C/C(N)=O)C[C@@H]12 [ANTHRAMYCIN METHYL ETHER] | active: 0.0676 µM |
| Nc1nc(Nc2ccccc2)c2[nH]cnc2n1 | inactive: > 100 µM |
| NC(=O)c1c(NC=O)ncn1C1OCC(O)C(O)C1O (stereo not drawn) | inactive: > 100 µM |
| CCOC(=O)C1S/C(=N\c2ccccc2)N=C1C (stereo not drawn) | inactive: > 100 µM |
| CCCCN(C)/N=N/c1[nH]cnc1C(N)=O | inactive: > 100 µM |
| Cc1ccc(S(=O)(=O)N2CCN(CCN(C)CCN3CCN(S(=O)(=O)c4ccc(C)cc4)CC3)CC2)cc1 | inactive: 15.3 µM |
| CC(C)C1=CC(=O)[C@@](C)(C2[C@H](O)C[C@@]3(C)[C@@H]4CC=C5[C@@H](CC[C@@H](OC6OCC(O)C(O)C6OC6OC(C)C(O)C(O)C6O)C5(C)C)[C@]4(C)C(=O)C[C@]23C)O1 (stereo partly drawn) | inactive: > 100 µM |
| O=C(O)CCCCCNC(=O)CCC(CN(CC(=O)OCc1ccccc1)CC(=O)OCc1ccccc1)N(CC(=O)OCc1ccccc1)CC(=O)OCc1ccccc1 (stereo not drawn) | inactive: 16.1 µM |
| N#C/C(N)=C(C#N)/N=C/NCc1ccccc1 | inactive: > 100 µM |
| O=C(NN1C(=O)CSC1c1ccc(Cl)c(Cl)c1)c1ccncc1 (stereo not drawn) | inactive: 51.2 µM |
| CCOC(=O)c1c(C)n(-c2ccc(C)cc2)c2c1cc(O)c1[nH]c3c(c12)CCCC3 | inactive: 19 µM |
| O=C(C=P(c1ccccc1)(c1ccccc1)c1ccccc1)c1ccc(-c2ccc(F)cc2F)cc1 | inactive: 2.52 µM |
| COc1ccc(OC)c2c1C[C@@H]1C(C#N)N3[C@H](Cc4c(OC)ccc(OC)c4[C@@H]3C)C(=O)N1[C@H]2C (stereo partly drawn) | inactive: 24.8 µM |
